Experimental data reported in article PMC8951588.
These are yes or no findings as the source states them, for the method shown. For some assays here: Binding seen in cells or lysates may run through a third protein. Some entries that bind do so weakly or less than the wild type. For some assays here: Sequences can lack the tags named with a protein. Blank lines part the entries; values can stand above or below the binder they belong to.

Key:
CER1 bait (pBT3N:CER1) = target: T1, CER1 bait (pBT3N:CER1) (UniProt F4HVY0); assay: two-hybrid
T1 sequence: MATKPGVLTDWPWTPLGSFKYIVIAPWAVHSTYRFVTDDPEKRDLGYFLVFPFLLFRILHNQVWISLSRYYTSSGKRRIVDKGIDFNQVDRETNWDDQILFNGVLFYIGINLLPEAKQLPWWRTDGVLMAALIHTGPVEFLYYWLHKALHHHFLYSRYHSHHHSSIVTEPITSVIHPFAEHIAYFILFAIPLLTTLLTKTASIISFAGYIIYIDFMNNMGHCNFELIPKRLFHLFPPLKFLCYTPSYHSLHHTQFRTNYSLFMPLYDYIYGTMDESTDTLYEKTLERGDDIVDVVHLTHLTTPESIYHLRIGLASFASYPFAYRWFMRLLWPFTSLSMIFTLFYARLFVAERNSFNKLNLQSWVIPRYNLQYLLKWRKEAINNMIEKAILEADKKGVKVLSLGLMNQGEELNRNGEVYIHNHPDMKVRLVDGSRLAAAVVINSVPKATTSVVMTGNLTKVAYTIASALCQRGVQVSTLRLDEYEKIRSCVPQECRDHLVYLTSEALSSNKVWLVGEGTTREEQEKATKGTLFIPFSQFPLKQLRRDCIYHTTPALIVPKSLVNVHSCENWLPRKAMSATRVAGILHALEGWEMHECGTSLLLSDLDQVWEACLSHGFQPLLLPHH

[1] = target: T2, Cub–StREM1.3 (bait in pBT3N) (Solanum tuberosum (potato)) (UniProt P93788); assay: two-hybrid
T2 sequence: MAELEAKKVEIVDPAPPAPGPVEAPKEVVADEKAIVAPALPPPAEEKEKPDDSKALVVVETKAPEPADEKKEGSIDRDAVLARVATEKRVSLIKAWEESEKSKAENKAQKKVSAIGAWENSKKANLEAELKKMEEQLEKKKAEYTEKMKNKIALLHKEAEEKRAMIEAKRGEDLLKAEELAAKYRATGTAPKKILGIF

[2] = target: T3, cYFP–REM (StREM1.3 fused to the C-terminal half of YFP) (Solanum tuberosum (potato)) (UniProt P93788); assay: split reporter
T3 sequence: T2 sequence

binding (CER1 bait (pBT3N:CER1)): no binding
binding [1]: binds
B1: NubG–StREM1.3 (Solanum tuberosum REMORIN group 1 homologue 3, prey in pPR3N) (protein, UniProt P93788 1-198)
chain: T2 sequence

binding [2]: binds
B2: nYFP–REM (StREM1.3 fused to the N-terminal half of YFP, pSITE-nEYFP-C1) (protein, UniProt P93788 1-198)
chain: T2 sequence

binding (CER1 bait (pBT3N:CER1)): binds
binding [1]: no binding
B3: CytB5-B prey (pPR3N:CytB5-B) (protein, UniProt O48845 1-134)
chain: MGDEAKIFTLSEVSEHNQAHDCWIVINGKVYNVTKFLEDHPGGDDVLLSSTGKDATDDFEDVGHSESAREMMEQYYVGEIDPTTIPKKVKYTPPKQPHYNQDKTSEFIIKLLQFLVPLAILGLAVGIRIYTKSG
